{"source": "paper PMC10668032", "note": "This is one part of the list. At the low end of the ranking the order means little."}
{"biological_target": "SIX1 homeodomain (reference allele) (UniProt Q15475)", "test": "universal protein binding microarray", "settings": "Universal all-10-mer PBM (8x60K, AMADID 030236), 300 nM GST-tagged protein, Alexa Fluor 488 anti-GST; buffer, salt, pH and temperature not stated; high values mean tight binding; most listed sequences are background and not binding sites; double strand, one strand shown", "units": {"binding signal": "E-score"}}
{"sequence": "CAACCTAA", "binding signal": -0.132}
{"sequence": "GCATCCCC", "binding signal": 0.145}
{"sequence": "CCATCATC", "binding signal": -0.105}
{"sequence": "GAATTGCA", "binding signal": -0.257}
{"sequence": "ACGGATTC", "binding signal": 0.187}
{"sequence": "CCATGCTC", "binding signal": -0.0939}
{"sequence": "ACACCGGT", "binding signal": 0.39}
{"sequence": "CCATAGCC", "binding signal": -0.0111}
{"sequence": "AGAACACC", "binding signal": 0.179}
{"sequence": "CTAAAACC", "binding signal": -0.171}
{"sequence": "ATCTGTTC", "binding signal": -0.0315}
{"sequence": "ACCAACTA", "binding signal": 0.0637}
{"sequence": "GGTAATAC", "binding signal": 0.297}
{"sequence": "AGCAATTC", "binding signal": -0.173}
{"sequence": "GCAGACGC", "binding signal": -0.0918}
{"sequence": "ATCGCAAA", "binding signal": 0.121}
{"sequence": "TATCACGA", "binding signal": 0.373}
{"sequence": "ACGATGGG", "binding signal": -0.0307}
{"sequence": "CTATGCTC", "binding signal": -0.154}
{"sequence": "CGAGTCGA", "binding signal": 0.0265}
{"sequence": "GCATCAAC", "binding signal": -0.052}
{"sequence": "CCCGTAAA", "binding signal": -0.0845}
{"sequence": "ATAGCTCC", "binding signal": 0.0647}
{"sequence": "AGCTCTAA", "binding signal": -0.0455}
{"sequence": "CAATTCGC", "binding signal": -0.0588}
{"sequence": "CACAAAAC", "binding signal": -0.121}
{"sequence": "CTTATTGC", "binding signal": -0.128}
{"sequence": "CATGCCAG", "binding signal": 0.0251}
{"sequence": "AACATTGC", "binding signal": -0.229}
{"sequence": "AGATGATA", "binding signal": 0.432}
{"sequence": "ACGTCGAG", "binding signal": -0.125}
{"sequence": "ACGGTTGC", "binding signal": -0.235}
{"sequence": "AGCTATTG", "binding signal": -0.0486}
{"sequence": "AGCCGAAC", "binding signal": -0.22}
{"sequence": "AATAGCCC", "binding signal": -0.0111}
{"sequence": "CCGTCAGC", "binding signal": -0.241}
{"sequence": "CGTGGCGC", "binding signal": -0.354}
{"sequence": "GCGAATCC", "binding signal": -0.0573}
{"sequence": "ATATCAAC", "binding signal": 0.418}
{"sequence": "AGAGCTCT", "binding signal": -0.197}
{"sequence": "AGTTCGGG", "binding signal": -0.161}
{"sequence": "ACTAGACG", "binding signal": 0.0521}
{"sequence": "AGAAAGCC", "binding signal": -0.277}
{"sequence": "CTAACCAA", "binding signal": -0.12}
{"sequence": "AGTCCGAT", "binding signal": 0.0388}
{"sequence": "ACATTGCG", "binding signal": -0.0894}
{"sequence": "CAATCGGG", "binding signal": -0.0725}
{"sequence": "ATGAGGAA", "binding signal": -0.0781}
{"sequence": "CGTGTTTC", "binding signal": -0.218}
{"sequence": "AGTATCCC", "binding signal": 0.412}
{"sequence": "CGGATTGA", "binding signal": 0.305}
{"sequence": "GGCCCTGA", "binding signal": -0.259}
{"sequence": "ATGCTGGG", "binding signal": -0.0546}
{"sequence": "AGTCGTGA", "binding signal": -0.000895}
{"sequence": "CCGCTAGA", "binding signal": -0.171}
{"sequence": "AGGGTCCC", "binding signal": -0.31}
{"sequence": "TATGCATA", "binding signal": 0.202}
{"sequence": "AAGATACT", "binding signal": 0.295}
{"sequence": "GGAAGACA", "binding signal": -0.14}
{"sequence": "TGATCAAA", "binding signal": 0.0636}
{"sequence": "AACTGAAC", "binding signal": -0.142}
{"sequence": "AGCCTTAT", "binding signal": 0.114}
{"sequence": "ATGGTTCC", "binding signal": -0.0625}
{"sequence": "CGAGTCAG", "binding signal": -0.245}
{"sequence": "AGGTCGGG", "binding signal": 0.0285}
{"sequence": "ATGTTATC", "binding signal": 0.13}
{"sequence": "ATACACAC", "binding signal": 0.249}
{"sequence": "AAAGGCCG", "binding signal": 0.00362}
{"sequence": "CGGCTTCC", "binding signal": -0.0221}
{"sequence": "CTCCTCTA", "binding signal": 0.0736}
{"sequence": "AATCCAGG", "binding signal": 0.138}
{"sequence": "CCTCCAAC", "binding signal": -0.0743}
{"sequence": "GAGCCAAA", "binding signal": -0.0853}
{"sequence": "CCGCTCTC", "binding signal": -0.21}
{"sequence": "CAAAGGGC", "binding signal": -0.182}
{"sequence": "GAGTGCCA", "binding signal": -0.326}
{"sequence": "GCAGAGAC", "binding signal": -0.238}
{"sequence": "CCTCGATC", "binding signal": 0.145}
{"sequence": "CTAAACAG", "binding signal": -0.164}
{"sequence": "CGGAGCAG", "binding signal": -0.12}
{"sequence": "CTTCTGGA", "binding signal": -0.055}
{"sequence": "CCCGGCGG", "binding signal": 0.0414}
{"sequence": "AGGGAAGC", "binding signal": -0.184}
{"sequence": "GCAAAAAC", "binding signal": -0.168}
{"sequence": "AAGGTAAA", "binding signal": -0.0296}
{"sequence": "AATTTAAT", "binding signal": -0.167}
{"sequence": "CAACCATG", "binding signal": -0.13}
{"sequence": "ACTTGGAT", "binding signal": 0.193}
{"sequence": "AGGAAAGC", "binding signal": -0.253}
{"sequence": "CTGAGCGA", "binding signal": -0.00364}
{"sequence": "CATAGACA", "binding signal": 0.00346}
{"sequence": "GAAATGAA", "binding signal": -0.072}
{"sequence": "CTTCCAGC", "binding signal": -0.156}
{"sequence": "AAAGAAAT", "binding signal": -0.254}
{"sequence": "ATTACTAA", "binding signal": 0.0066}
{"sequence": "CGAGTGCG", "binding signal": -0.171}
{"sequence": "CTGTAGGA", "binding signal": -0.086}
{"sequence": "CCGAACCG", "binding signal": 0.0063}
{"sequence": "GAGTCGCA", "binding signal": -0.21}
{"sequence": "ATCCAGTC", "binding signal": 0.179}
{"sequence": "ACCAAGAG", "binding signal": 0.0644}
{"sequence": "ATAGGCGA", "binding signal": 0.103}
{"sequence": "CCTGCCGC", "binding signal": -0.301}
{"sequence": "TACAGCAA", "binding signal": -0.0191}
{"sequence": "GAAGATGC", "binding signal": -0.0743}
{"sequence": "CGGTCCAC", "binding signal": -0.268}
{"sequence": "GAGTCGAA", "binding signal": 0.0498}
{"sequence": "CCACTGAG", "binding signal": 0.0813}
{"sequence": "GGGAGGAA", "binding signal": 0.0563}
